# Values joined by “and” are separate entries in the source; they are usually repeats but may differ in a detail not shown here. Equal values may be shown once. About 2,600 (0.72%) of roughly 360,000 compounds were called active. Inconclusive means that the source gave no clear call. Such entries were picked first, then a sample of the others. Calls come from the whole dose curve; as a rule, active = well fitted inhibition curve with a large enough effect; inconclusive = small, poorly fitted or top-dose-only effect; inactive = no such curve, though single readings can be large or run the other way. Potencies of inconclusive entries are doubtful fits and often do not repeat.
# Experiment: Primary qHTS for Inhibitors of ATXN expression; note: nearly all actives have a fitted effect of over 55% in size
# Details: HEK-293 ATXN2-luciferase reporter, luminescence, 24 h; series mostly up to 57 µM
# Procedure, shortened: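 ATXN2-luciferase reporter cells (luciferase flanked by upstream and downstream ATXN2 gene portions) were treated 24 h at 37 °C with compounds at up to 57 uM. SteadyGlo luminescence gave expression; GF-AFC fluorescence gave viability.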
# Potency is the fitted concentration of half-maximal effect; tags give direction and shape of the fitted curve.
row,Compound,Potency
1,CC(C)c1ccc(NC(=O)c2cc(S(=O)(=O)NC3CCCCC3)ccc2F)cc1,"inconclusive: 35.5 µM [inhibitor, single point]"
2,CCOP(=O)(OCC)c1nc(-c2cccc3ccccc23)oc1N1CCOCC1,inactive
3,COc1ccc(Cl)cc1NC(=O)COC(=O)CC(C)(C)CC1=NS(=O)(=O)c2ccccc2N1,"inconclusive: 39.8 µM [inhibitor, single point]"
4,CCCNC(=O)c1ccc(N2CCC3(CC2)CC(c2cccc(Br)c2)=NO3)c(NC(=O)c2cccc(OC)c2)c1,"inconclusive: 15.8 µM [inhibitor, partial curve, poor fit]"
5,CCN(CC)CCn1c(NCc2ccccn2)nc2ccccc21,inactive
6,COC(=O)C1=C(C(=O)OC)[C@@H]2N(Cc3ccccc3)c3ccccc3[C@@]23C[C@@H](C(=O)OC)N(C(=O)c2ccc(Br)cc2)C3=N1,"inconclusive: 8.91 µM [inhibitor, partial curve]"
7,COc1cccc(C2=Cc3ccc(F)cc3C(CC(C)=O)N2c2ccc(-c3cncnc3)cc2)c1 (configuration not stated),inactive
8,c1cc(-c2cn(C[C@H]3CC[C@@H]([C@@H]4CC[C@H](Cn5cc(-c6ccsc6)nn5)O4)O3)nn2)cs1,"inconclusive: 20 µM [inhibitor, partial curve, poor fit]"
9,CC(=O)NCCc1c[nH]c2ccc(O)cc12,inactive
10,C=CCC1Cc2c(Br)cccc2C(CC=C)N1 (configuration not stated),inactive
11,OCC1OC(n2ccc3c(NO)ncnc32)C(O)C1O (configuration not stated),"inconclusive: 0.67 µM [inhibitor, full curve, poor fit]"
12,Cc1cc(NC(=O)Nc2ccccc2Cl)no1,inactive
13,CCN(CC)C(=O)COC(=O)c1cc(-c2ccc(OC)cc2)nc2ccccc12,"inconclusive: 39.8 µM [inhibitor, single point]"
14,CCc1noc(C)c1C(=O)N1CCC(CCC(=O)Nc2cccc(OC)c2)CC1,inactive
15,Cc1ccc(C(C)C)c(OCc2ccc(C(=O)Nc3ccc(S(N)(=O)=O)cc3C)o2)c1,"inconclusive: 39.8 µM [inhibitor, single point]"
16,Cn1c(Cc2cccc3ccccc23)nnc1SCC(=O)N1CCN(c2cccc(Cl)c2)CC1,"inconclusive: 20 µM [inhibitor, partial curve]"
17,Cc1ccc(C(=O)O/N=C/c2c(N3CCOCC3)n(C)c3ccccc23)cc1,"inconclusive: 6.31 µM [inhibitor, single point]"
18,CCOc1cc(CNCCCN2CCOCC2)ccc1OCC(=O)Nc1cccc2ccccc12,inactive
19,O=C(NCC1CCN(Cc2cccc(Cl)c2)CC1)C1CCCN(c2ncnc3c2nc2n3CCCCC2)C1 (configuration not stated),"inconclusive: 17.8 µM [inhibitor, single point]"
20,Cc1ccc(S(=O)(=O)N2CCC(c3nnc(-c4cccc(C)c4)o3)CC2)cc1,active: 5.62 µM
21,CCN1C(=O)CC(c2ccccc2)N(C2CCCC2)c2nc(Nc3ccc(C(=O)NC4CCN(C)CC4)cc3OC)ncc21 (configuration not stated),"inconclusive: 35.5 µM [inhibitor, single point]"
22,O=C(COc1ccccc1Cl)N1CCN(c2ccc([N+](=O)[O-])c(N3CCOCC3)c2)CC1,inactive
23,CCCCCCN1C[C@@H](n2cc(COC(=O)c3ccccc3)nn2)[C@H](O)C[C@@H]1c1ccc(C)cc1,"inconclusive: 39.8 µM [inhibitor, single point]"

row,Compound,Potency
1,COc1ccccc1N(C)S(=O)(=O)c1ccc(C(=O)Nc2ccncc2)cc1,inactive
2,CCC1CCCCN1C(=O)CSc1nc(-c2ccc(OC)cc2)cc(C(F)(F)F)n1 (configuration not stated),"inconclusive: 39.8 µM [inhibitor, single point]"
3,CCCCc1ccc(NC(=O)N2CCN(c3cc(C)nc4ccccc34)CC2)c(C)c1,active: 17.8 µM
4,FC(F)(F)c1cccc(Cc2noc(CN3CCC(c4ccncc4)CC3)n2)c1,"inconclusive: 17.8 µM [inhibitor, partial curve, poor fit]"
5,CCn1cnc2cc(NCc3ccc(N(C)C)cc3)ccc21,"inconclusive: 39.8 µM [inhibitor, single point]"
6,CN1CCN(c2cc(C(=O)Nc3ccc4c(c3)-c3c(c(C(N)=O)nn3-c3ccc(F)cc3)CC4)c(Cl)cn2)CC1,"inconclusive: 24.3 µM [inhibitor, partial curve]"
7,O=C(NCC(c1cccnc1)N1CCN(Cc2ccccc2)CC1)C(=O)Nc1ccc(F)cc1 (configuration not stated),inactive
8,O=S(=O)(Nc1cc(Cl)ccc1-n1cncn1)c1cc(Br)ccc1Br,"inconclusive: 39.8 µM [inhibitor, partial curve, poor fit]"
9,C=CCn1c(O)c(C2=c3ccccc3=NC2=O)c2ccccc21,"inconclusive: 39.8 µM [inhibitor, single point]"
10,O=C1N(Cc2ccc(F)cc2)CCN1c1ccc(F)cc1,inactive
11,O=C(N/N=C/c1ccc([N+](=O)[O-])o1)c1ccccc1-n1cccc1,"inconclusive: 5.62 µM [inhibitor, partial curve]"
12,COc1cccc(/C=N/NC(=O)c2[nH]nc3c2CCc2ccccc2-3)c1O,"inconclusive: 2.51 µM [inhibitor, full curve]"
13,O=C1CCC(=O)N1CN(Cc1ccco1)CN1C(=O)CCC1=O,inactive
14,O=C(c1ccc2c3c(cccc13)CC2)C1CCCN(Cc2cccnc2)C1 (configuration not stated),"inconclusive: 10 µM [inhibitor, partial curve, poor fit]"
15,C=C(c1ccc(O)cc1)c1ccc(O)cc1,inactive
16,COc1ccc(Cl)cc1NC(=O)C1CC(=O)N(C2CCCCC2)C1 (configuration not stated),inactive
17,CCCCCCCCCCCCCCCC[n+]1ccc(/C=N/O)cc1,"inconclusive: 28.2 µM [inhibitor, single point]"
18,O=C(C1CC1)N1CCc2cc(Br)cc(S(=O)(=O)Nc3ccc(C(F)(F)F)cc3)c21,"inconclusive: 28.2 µM [inhibitor, single point]"
19,COc1ccccc1NC(=O)c1ccccc1NC(=O)c1cccs1,inactive
20,O=C(CSc1oc(-c2ccco2)nc1S(=O)(=O)c1ccccc1)NCC1CCCO1 (configuration not stated),"inconclusive: 0.501 µM [inhibitor, full curve, poor fit]"
21,C=C1[C@@H](O)[C@H](Cc2ccccc2)N(Cc2ccccc2Br)S1(=O)=O,active: 20 µM
22,CCOC(=O)N1CCN(Cc2cc(Cl)c3cccnc3c2O)CC1,active: 3.55 µM
23,COc1cccc(N=Nc2c(N)[nH]n3c(=O)c4c(nc23)CCCC4)c1,"inconclusive: 10.6 µM [inhibitor, partial curve, poor fit]"

row,Compound,Potency
1,O=C(Nc1nnc(-c2ccc(F)cc2)o1)c1ccc(S(=O)(=O)N2CCOCC2)cc1,"inconclusive: 14.1 µM [inhibitor, partial curve]"
2,COc1ccc2c(c1)N(C[C@H](C)CN(C)C)c1ccccc1S2,"inconclusive: 22.4 µM [inhibitor, partial curve, poor fit]"
3,CCOc1ccc(CN2C(=O)c3ccccc3Sc3ccc(C(=O)NC4CCC(C)CC4)cc32)cc1 (configuration not stated),inactive
4,COc1ccc(C(CC(=O)N2CCCCC2)c2c(OC)cc(OC)c3c(-c4ccccc4)cc(=O)oc23)cc1 (configuration not stated),"inconclusive: 31.6 µM [inhibitor, partial curve, poor fit]"
5,O=C(Nc1cccc(-c2nc3ccccc3[nH]2)c1)c1cccc(NC(=O)c2ccco2)c1,"inconclusive: 28.2 µM [inhibitor, single point]"
6,Cc1ccc(Cn2c(Cc3ccccc3)nc3ccccc32)cc1,"inconclusive: 20 µM [inhibitor, partial curve, poor fit]"
7,Cc1ccc(N=Nc2c(N)[nH]n3c(=O)cc(-c4ccccc4)nc23)cc1,"inconclusive: 28.2 µM [inhibitor, single point]"
8,CCCNC(=S)N(Cc1ccccc1)Cc1nc2ccccc2c(=O)[nH]1,inactive
9,O=C1N/C(=N\N=C\c2ccccn2)SC1Cc1cccc(SC(F)F)c1 (configuration not stated),active: 17.8 µM
10,O=C(O)c1cccc(NC(=O)c2cccc(S(=O)(=O)N3CCc4ccccc4C3)c2)c1,inactive
11,COC(=O)c1ccc(C(=O)OC)c(NC(=S)N2CCC(C)CC2)c1,inactive
12,Oc1c(C(Nc2ccccn2)c2ccccn2)ccc2cccnc12 (configuration not stated),active: 5.01 µM
13,CCN(c1ccccc1)S(=O)(=O)c1ccc(Cl)c(NC(=O)CN2CCCCCC2)c1,"inconclusive: 35.5 µM [inhibitor, single point]"
14,COc1ccc(CC2(CO)CCN(Cc3ccc(OC(F)(F)F)cc3)CC2)cc1,"inconclusive: 17.8 µM [inhibitor, partial curve, poor fit]"
15,COc1ccccc1N=Nc1[nH]c2ccc(C)cc2c1O,inactive
16,CCCN1CCN(CCCNC(=O)c2ccc3c(Cl)c4c(nc3c2)CCCC4)CC1,"inconclusive: 15.8 µM [inhibitor, partial curve, poor fit]"
17,CCn1c(SCC(=O)Nc2cc(Cl)ccc2OC)nc2c([nH]c3ccccc32)c1=O,inactive
18,CC1=CC(C)(C)N2C(=O)C3(SCC(=O)N3c3ccc(F)cc3)c3cc(C)cc1c32 (configuration not stated),"inconclusive: 35.5 µM [inhibitor, single point]"
19,COc1ccc(Nc2cc(C)nc(-n3nc(C)cc3C)n2)cc1,"inconclusive: 0.794 µM [inhibitor, full curve, poor fit]"
20,COc1ccccc1N1CCN(CC(O)COc2cccc3ccccc23)CC1 (configuration not stated),"inconclusive: 5.44 µM [inhibitor, partial curve, poor fit] and inconclusive: 31.6 µM [inhibitor, partial curve]"
21,COc1ccc(-n2c(-c3ccc(Br)cc3)c[n+]3c2CCCCC3)cc1,"inconclusive: 7.94 µM [inhibitor, single point]"

# Reference: PubChem BioAssay AID1745845 (National Center for Advancing Translational Sciences (NCATS), 2022)
